Results reported in the supplement of paper PMC7826260.
This is one part of the list. Cleavage of a single-stranded DNA pool by Rep nickase domains was read by sequencing at 3 µM enzyme and 37 °C for 1 h; the strands have 90 letters, of which the middle is given. Numbers give uncut DNA relative to the enzyme-free pool, as log2; uncut sequences lie near 0, cut ones below; no hit call is given. Counts are relative to all reads; uncut strands gain when others are lost, and binding without cutting may add a little.

Key:
Test in all cases: uncleaved DNA left, log2 of reads against the no-enzyme library (log2 ratio); higher = less cleavage (more negative = more Rep cleavage of the k-mer); sequences stand for … in CTCGTCCG…ACCGGAGA
[1] = test system: T1, Rep nickase domain of Muscovy duck circovirus
T1 sequence (residues 1-111, tag not shown): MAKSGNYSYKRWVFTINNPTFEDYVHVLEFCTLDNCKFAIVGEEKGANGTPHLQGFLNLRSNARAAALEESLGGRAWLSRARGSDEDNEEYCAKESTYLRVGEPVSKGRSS
Procedure: (§1)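 A pool of 90-nt single-stranded DNAs with seven random bases just before the constant AC of the nick site (name = the seven bases) was cut by 3 µM recombinant His6-SUMO-tagged Rep nickase domain (300 nM DNA, 50 mM HEPES pH 8.0, 50 mM NaCl, 1 mM MnCl2, 1 h, 37 °C, three replicates). Uncut DNA was amplified and sequenced.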

[2] = test system: T2, Rep nickase domain of banana bunchy top virus
T2 sequence (residues 1-94, tag not shown): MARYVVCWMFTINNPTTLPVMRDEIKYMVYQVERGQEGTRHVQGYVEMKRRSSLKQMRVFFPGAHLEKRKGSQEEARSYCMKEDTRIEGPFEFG
Procedure: as §1

[3] = test system: T3, Rep nickase domain of cabbage leaf curl virus
T3 sequence (residues 1-116, tag not shown): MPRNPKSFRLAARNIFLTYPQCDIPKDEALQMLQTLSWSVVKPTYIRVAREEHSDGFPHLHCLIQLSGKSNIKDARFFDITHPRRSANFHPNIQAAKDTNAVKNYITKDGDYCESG
Procedure: as §1

[4] = test system: T4, Rep nickase domain of chickpea chlorotic dwarf virus
T4 sequence (residues 1-124, tag not shown): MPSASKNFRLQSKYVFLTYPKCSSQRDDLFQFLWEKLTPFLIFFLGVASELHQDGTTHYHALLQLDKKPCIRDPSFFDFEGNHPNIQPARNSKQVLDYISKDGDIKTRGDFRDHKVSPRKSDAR
Procedure: as §1

[5] = test system: T5, Rep nickase domain of faba bean necrotic yellows virus
T5 sequence (residues 1-98, tag not shown): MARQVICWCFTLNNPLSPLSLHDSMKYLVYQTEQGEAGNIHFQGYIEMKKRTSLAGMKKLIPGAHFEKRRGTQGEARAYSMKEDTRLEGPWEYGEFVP
Procedure: as §1

[6] = test system: T6, Rep nickase domain of maize striate mosaic virus
T6 sequence (residues 1-117, tag not shown): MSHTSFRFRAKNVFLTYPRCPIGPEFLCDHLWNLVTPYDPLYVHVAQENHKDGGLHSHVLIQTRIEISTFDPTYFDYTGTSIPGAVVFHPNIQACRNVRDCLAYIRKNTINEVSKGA
Procedure: as §1

[7] = test system: T7, Rep nickase domain of porcine circovirus 2
T7 sequence (residues 2-116, tag not shown): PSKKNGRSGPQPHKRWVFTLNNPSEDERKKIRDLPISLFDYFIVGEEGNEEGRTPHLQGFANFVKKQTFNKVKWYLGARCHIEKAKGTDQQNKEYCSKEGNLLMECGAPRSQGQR
Procedure: as §1

[8] = test system: T8, Rep nickase domain of tomato yellow leaf curl virus
T8 sequence (residues 1-136, tag not shown): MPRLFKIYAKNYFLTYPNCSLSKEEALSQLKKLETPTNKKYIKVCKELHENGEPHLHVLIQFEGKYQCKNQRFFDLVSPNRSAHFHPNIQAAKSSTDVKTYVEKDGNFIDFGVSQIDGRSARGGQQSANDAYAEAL
Procedure: as §1

[9] = test system: T9, Rep nickase domain of wheat dwarf virus
T9 sequence (residues 1-137, tag not shown): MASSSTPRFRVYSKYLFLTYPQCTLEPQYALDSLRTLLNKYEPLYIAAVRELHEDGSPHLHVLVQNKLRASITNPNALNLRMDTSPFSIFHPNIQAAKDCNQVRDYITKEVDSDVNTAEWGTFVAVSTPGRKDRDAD
Procedure: as §1

Sequence	uncleaved DNA left (log2) [1]	uncleaved DNA left (log2) [2]	uncleaved DNA left (log2) [3]	uncleaved DNA left (log2) [4]	uncleaved DNA left (log2) [5]	uncleaved DNA left (log2) [6]	uncleaved DNA left (log2) [7]	uncleaved DNA left (log2) [8]	uncleaved DNA left (log2) [9]
CATTTAG	0.0651	0.00591	-0.682	-0.015	0.175	-0.764	0.206	0.19	0.0197
TAATAGC	0.0764	0.0732	-3.34	-2.88	0.1	-2.4	0.178	0.143	-0.815
ATTGCCT	-0.0492	-0.157	-0.644	-1.28	-0.102	-1.04	-0.38	-0.125	-0.145
TGGAGCT	0.101	-0.0233	0.194	0.0742	-0.0925	0.128	0.073	0.0318	0.103
GAAATTG	0.0247	0.0352	-0.265	-0.283	0.0862	-0.921	0.144	0.0267	-0.0175
AGGTATG	0.141	0.0717	0.109	0.406	0.178	0.376	0.0447	-0.051	0.0929
ATCTACA	-0.0886	-0.0506	-0.328	-2.44	-0.0153	-0.671	-0.269	-0.0356	-0.119
CGGTTCA	-0.125	-0.147	0.0885	-0.111	0.0241	0.288	-0.0886	0.0168	0.101
CATACAC	0.109	0.0643	0.0557	-1.01	0.00443	-0.62	0.144	0.0466	0.0128
CCTTGTT	-2.82	-0.709	-0.889	-2.64	-0.0753	-1.03	-2.94	-0.223	-0.548
AGCACGC	-0.0922	0.0511	0.000486	0.207	-0.0664	0.0285	0.0817	-0.0611	-0.0166
GCCGTTA	-0.0934	0.057	0.142	-0.238	-0.0972	-0.1	-0.116	-0.156	-0.0859
AATGTCT	0.00986	-0.0229	-0.406	-2.29	0.123	-0.546	-1.36	0.0512	-0.0987
GAATACG	-0.00243	-0.101	-0.804	-0.354	-0.0738	-0.904	0.157	0.0228	-0.162
TGCCTGG	0.0737	-0.0126	0.129	0.37	0.0292	0.288	0.145	-0.00495	0.0189
GCAAAGT	0.0641	0.00622	-0.0215	-0.0306	0.0183	-0.671	0.0347	-0.105	0.0453
GCCATGA	0.0531	0.112	-0.0248	0.351	0.135	-0.355	0.146	-0.0567	-0.0763
GGACATA	0.0781	0.123	0.983	2.09	0.0242	2.32	0.239	0.0946	0.24
TCGGTGA	0.104	-0.0599	0.0382	-0.162	0.00015	-0.642	0.18	-0.163	-0.0917
TGTATTT	0.0278	-0.0312	0.294	-0.841	0.0375	0.838	-1.33	0.113	0.0333
TACTTTT	-3.95	-3.41	-3.34	-3.38	-0.427	-1.31	-4.26	0.162	-1.57
TTTAGGA	0.0979	0.0372	0.162	0.424	0.0789	-0.14	0.162	0.0444	0.016
AAGTAAT	-0.75	-2.14	0.0463	0.673	-1.55	1.46	-3.84	-0.00272	0.0634
TTTAAGC	0.115	-0.0449	0.0356	-0.367	0.061	-1.04	0.0921	0.0684	0.00766
TGGTCGA	0.127	0.0915	-0.134	-0.268	-0.0801	-0.726	0.134	0.0267	0.0712
CGGTCTG	0.103	0.033	0.0927	0.635	-0.116	1.71	0.0944	0.126	0.0774
TCCCTAG	-0.0925	0.0622	-0.65	-0.947	-0.0496	-1.04	0.0675	-0.0139	-0.101
TTAGCCC	-0.0465	-0.163	0.019	-0.425	-0.0613	-0.558	-0.154	-0.108	-0.152
TGTGGAT	0.0129	0.0374	0.312	1.42	-0.0343	1.86	0.0971	-0.199	-0.0373
GTATCGT	-0.00649	0.104	0.229	0.605	-0.028	0.972	-0.0278	0.0441	0.119
